Inconclusive means that the source gave no clear call. Such entries were picked first, then a sample of the others. For some of these results: No potency is given beside an inconclusive call; the fits are too rough. The source made the active and inactive calls. Calls come from the whole dose curve; as a rule, active = well fitted curve in the direction sought with a large enough effect; inconclusive = small, poorly fitted or top-dose-only effect, or another doubt; inactive = no such curve, though single readings can be large; an effect the other way counts as inactive or inconclusive.
Assays:
[1] = tested on: Zika virus NS2B-NS3 protease (linked construct); assay: Primary screen NINDS Rhodamine qHTS for Zika virus inhibitors (AID 1347160); note: nearly all actives have a fitted effect of over 55% in size
In short: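 Enzyme (25 nM, linked NS2B-NS3) was preincubated 15 min with compound in 10 mM Tris-HCl pH 8.0, 0.01% Tween 20. Rhodamine110 substrate (1.5 microM) was then added and fluorescence read at start and after 15 min.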

[2] = HPAF-II Cancer Cell Toxicity qHTS against the NCATS CANVASS Library (AID 1347346); note: nearly all actives have a fitted effect of over 55% in size
In short: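 First, HPAF-II cells are plated (1000 cells/well) and held 4 h at 37 degrees C. Next, compounds are pin-transferred as an 11-point series. After 72 h, CellTiter-Glo is added and luminescence measured.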

[3] = UWB1.289 Cancer Cell Toxicity qHTS against the NCATS CANVASS Library (AID 1347347); note: nearly all actives have a fitted effect of over 60% in size
In short: (§1)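 Quantitative HTS format: an 11-concentration series was applied to 1000 cells/well following a 4-hour attachment. Cultures ran 72 hours before ATP luminescence detection by CellTiter-Glo.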

[4] = Panc-1005 Cancer Cell Toxicity qHTS against the NCATS CANVASS Library (AID 1347349); note: nearly all actives have a fitted effect of over 60% in size
In short: as §1

[5] = SW1088 Cancer Cell Toxicity qHTS against the NCATS CANVASS Library (AID 1347350); note: nearly all actives have a fitted effect of over 75% in size
In short: as §1

[6] = U-118MG Cancer Cell Toxicity qHTS against the NCATS CANVASS Library (AID 1347351)
In short: as §1

[7] = HEK-293 Cancer Cell Toxicity qHTS against the NCATS CANVASS Library (AID 1347355); note: nearly all actives have a fitted effect of over 65% in size
In short: (§2)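 First, 1000 cells go into each well and rest for 4 hours. Next, an 11-point dilution range is pinned in. Plates then incubate 72 hours before CellTiter-Glo addition and luminescence reading.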

[8] = KB-8-5-11 Cancer Cell Toxicity qHTS against the NCATS CANVASS Library (AID 1347364); details: activity change, negative = toxicity: at 46.1 µM (top of the series); note: nearly all actives have a fitted effect of over 75% in size
In short: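 Terse: KB-8-5-11, 500 cells/well, 72 hr, 37C/5% CO2, 11-pt titration, CellTiter-Glo readout; confirmatory runs ± 1uM tariquidar in medium.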

[9] = qHTS for Hypoxia signaling pathway (HIF-1) antagonists against the NCATS CANVASS Library (AID 1347374); note: nearly all actives have a fitted effect of over 60% in size
In short: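 Antagonism scored as loss of CoCl2-driven (60 uM stock added) HRE beta-lactamase signal, read by CCF4 FRET at 460/530 nm. Compounds were tested in an 11-point series on ME-180 reporter cells for 17 hrs at 37C, with parallel CellTiter-Glo cytotoxicity.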

[10] = qHTS for Antimalaria activity screened against the NCATS CANVASS Library (AID 1347380); note: nearly all actives have a fitted effect of over 40% in size;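 for activity change, negative = inhibition: Plasmodium falciparum strain Dd2 asexual parasites grown in red blood cells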
In short: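 Compounds are titrated over 11 concentrations onto Dd2 parasite cultures (0.3% parasitemia, 2.5% hematocrit). Growth over 72 h at 37C in low oxygen is measured as SYBR Green DNA fluorescence after lysis.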

[11] = qHTS for Activators of p53 Stress Response Pathway screened against the NCATS CANVASS Library (AID 1347388)
In short: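 p53RE-bla HCT-116 cells (4000/well) were pre-incubated for 5 h, then treated with compound (11 points) for 16 h at 37C. After 2 h with CCF4, the 460/530 nm ratio gave reporter activation; CellTiter-Glo measured viability.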

[12] = Secretion counterscreen for inhibitors of the SERCaMP assay screened against the NCATS CANVASS Library (AID 1347390); details: SH-SY5Y constitutive GLuc secretion, luminescence, 20 h; activity change, negative = inhibition: at 76.6 µM (top of the series);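 note: light from luciferase secreted into medium read as a measure of general secretion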
In short: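 SH-SY5Y cells expressing constitutively secreted GLuc, 1000 cells/well, attached 4 h at 37C, then exposed to compounds (0.001 - 77 uM, 11-pnt series) for 20 h. Coelenterazine added; luminescence read to flag secretory-pathway interferers.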

[13] = qHTS for activators of Nrf2/ARE signaling pathway screened against the NCATS CANVASS Library (AID 1347391); note: nearly all actives have a fitted effect of over 60% in size
In short: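 Beta-lactamase reporter signal, read as 460 and 530 nm emission under 405 nm excitation after 2 h CCF4 loading, reflected ARE activation in HepG2 cells treated 16 h with an 11-point series.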

[14] = qHTS for inhibitors of ER calcium dysfunction: SERCaMP assay screened against the NCATS CANVASS Library (AID 1347393); details: SH-SY5Y GLuc-SERCaMP secretion, thapsigargin, luminescence; activity change, negative = inhibition: at 76.6 µM (top of the series) unless noted; note: nearly all actives have a fitted effect of over 40% in size;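 for activity change, negative = inhibition: lower secreted reporter signal means inhibitor of ER calcium depletion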
In short: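 SH-SY5Y GLuc-SERCaMP, 1000 cells/well, 4 h attach; cpd 16 h, 37C/5% CO2; thapsigargin (added as 6x 600 nM) 4 h; coelenterazine; luminescence. Reduced reporter release = ER Ca stabilization.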

[15] = Viability qHTS for inhibitors of the SERCaMP assay screened against the NCATS CANVASS Library (AID 1347400); note: nearly all actives have a fitted effect of over 70% in size
In short: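 Seed SH-SY5Y-GLuc SERCaMP MJH297 cells at 1000 per well, incubate 4 h, add compounds across an 11-point range, incubate 48 h at 37C, then add CellTiter-Glo and read luminescence.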

[16] = OV-KATE Cancer Cell Toxicity qHTS against the NCATS CANVASS Library (AID 1347345)
In short: as §1

[17] = OV-SAHO Cancer Cell Toxicity qHTS against the NCATS CANVASS Library (AID 1347348); details: OV-SAHO viability, CellTiter-Glo luminescence, 72 h; series mostly up to 38.3 µM; note: nearly all actives have a fitted effect of over 55% in size
In short: as §1

[18] = qHTS for inhibitors of Wild type Zika virus screened against the NCATS CANVASS Library (AID 1347396)
In short: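 Protection against wild-type Zika cytopathic effect is measured in African green monkey Vero 766 cells exposed to an 11-point compound series. Surviving cells are quantified by CellTiter Glo luminescence after 72 h.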

[19] = UWB1.289-WTBRCA1 Cancer Cell Toxicity qHTS against the NCATS CANVASS Library (AID 1347354)
In short: as §2

[20] = A2780 Cisplatin Sensitive Ovarian Cancer Cell Toxicity qHTS against the NCATS CANVASS Library (AID 1347353); note: nearly all actives have a fitted effect of over 60% in size
In short: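 Cells are plated at 750 per well and rest for 4 hours. Compounds are added across eleven concentrations, and incubated 72 hours before ATP is quantified by luminescence.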
Potency is the fitted concentration of half-maximal effect; tags give direction and shape of the fitted curve.

| SMILES | Potency [1] | Potency [2] | Potency [3] | Potency [4] | Potency [5] | Potency [6] | Potency [7] | Potency [8] | Potency [9] | Potency [10] | Potency [11] | Potency [12] | Potency [13] | Potency [14] | Potency [15] | Potency [16] | Potency [17] | Potency [18] | Potency [19] | Potency [20] |
| --- | --- | --- | --- | --- | --- | --- | --- | --- | --- | --- | --- | --- | --- | --- | --- | --- | --- | --- | --- | --- |
| COc1ccc([C@@H]2c3cc4c(cc3C[C@H](C)C2C)OCO4)cc1OC (stereo partly specified) | inconclusive [inhibitor, partial curve, poor fit] | inconclusive [cytotoxic, partial curve] | inconclusive [cytotoxic, partial curve] | inconclusive [cytotoxic, partial curve] | inconclusive [cytotoxic, single point] | inactive | inconclusive [cytotoxic, full curve] | active: 3.72 µM | inconclusive [inhibitor, single point] | inconclusive [cytotoxic, full curve] | active: 7.41 µM | inconclusive [inhibitor, partial curve] | inactive | – | – | – | – | – | – | – |
| CC[C@H]1[C@H](C)[C@H](c2cc(OC)c(OC)cc2OC)[C@@H](C)[C@H](c2cc(OC)c(OC)cc2OC)[C@@]12C=C(OC)C(=O)C=C2OC | active: 27.7 µM | inconclusive [cytotoxic, single point] | inconclusive [cytotoxic, partial curve, poor fit] | inconclusive [cytotoxic, single point] | – | inconclusive [cytotoxic, single point] | – | inconclusive [cytotoxic, partial curve] | inconclusive [inhibitor, single point] | – | – | inactive | active: 14.8 µM | inconclusive [inhibitor, partial curve] | inconclusive [cytotoxic, partial curve] | – | – | – | – | – |
| C/C(=C\[C@H](C)C(=O)/C=C/CC1CC(=O)NC(=O)C1)[C@@H]1OC(=O)CCCC/C=C/[C@H](O)[C@@H](O)[C@@H]1C | inconclusive [inhibitor, single point] | – | inconclusive [cytotoxic, partial curve] | – | – | inconclusive [cytotoxic, partial curve] | active: 23.5 µM | – | – | inactive | – | – | – | active: 19.3 µM | inconclusive [cytotoxic, single point] | inconclusive [cytotoxic, partial curve, poor fit] | inconclusive [cytotoxic, partial curve] | inactive | – | – |
| C/C(=C\[C@@H](C)CC/C=C/CC/C=C/C(=O)O)[C@H](O)[C@H](C)C(=O)CCCC1CC(=O)NC(=O)C1 | inconclusive [inhibitor, single point] | active: 6.68 µM | inconclusive [cytotoxic, partial curve] | inconclusive [cytotoxic, full curve] | – | – | – | – | – | – | – | – | – | inactive | – | – | – | – | inactive | – |
| CO[C@@H]1C[C@@H](C[C@H]2CC[C@H](C)[C@H]([C@@H](C)C(=O)O)O2)O[C@]2(O[C@](C)([C@H]3CC[C@@](C)([C@@H]4O[C@@H]([C@H]5O[C@](C)(O)[C@H](C)C[C@@H]5C)C[C@@H]4C)O3)C[C@H]2C)[C@@H]1C | active: 11 µM | active: 9.43 µM | active: 3.34 µM | active: 3.75 µM | – | active: 5.3 µM | active: 0.296 µM | active: 5.9 µM | – | – | active: 3.71 µM | – | – | – | – | – | – | active: 1.04 µM | active: 9.41 µM | – |
| CC1=C[C@H]2[C@H]3C(=O)C(c4ccc(O)cc4)=C[C@@]3(c3ccc(O)cc3)[C@@H]1C(=O)[C@]2(C)O | inconclusive [inhibitor, partial curve] | inconclusive [cytotoxic, single point] | inconclusive [cytotoxic, full curve] | inconclusive [cytotoxic, full curve] | – | inconclusive [cytotoxic, full curve] | – | – | – | – | active: 0.331 µM | inconclusive [inhibitor, single point] | inconclusive [activator, single point] | – | – | – | – | inconclusive [inhibitor, partial curve, poor fit] | inconclusive [cytotoxic, partial curve, poor fit] | active: 0.418 µM |
